# The full ranking holds about 33,000 sequences; the median of “E-score (-0.5 to 0.5)” is about -0.036, and the highest 2% start at about 0.37. The list shows a part of the results.
# Biological target: T1, Yer064c (UniProt P40041)
# T1 sequence: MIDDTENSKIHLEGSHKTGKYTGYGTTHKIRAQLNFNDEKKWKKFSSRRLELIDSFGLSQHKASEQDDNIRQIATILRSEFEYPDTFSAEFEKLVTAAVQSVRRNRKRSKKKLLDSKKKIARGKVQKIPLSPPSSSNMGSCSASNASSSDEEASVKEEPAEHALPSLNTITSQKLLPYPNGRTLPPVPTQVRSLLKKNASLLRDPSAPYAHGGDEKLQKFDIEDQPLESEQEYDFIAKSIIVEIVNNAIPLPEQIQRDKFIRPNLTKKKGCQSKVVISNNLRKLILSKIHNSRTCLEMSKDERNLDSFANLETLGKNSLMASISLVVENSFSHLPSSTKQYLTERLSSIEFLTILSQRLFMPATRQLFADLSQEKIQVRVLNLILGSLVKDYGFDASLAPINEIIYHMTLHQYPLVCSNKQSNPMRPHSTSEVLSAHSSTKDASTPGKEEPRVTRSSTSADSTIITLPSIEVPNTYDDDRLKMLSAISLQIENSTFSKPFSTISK
# Assay: PBM E-score (8-mer binding enrichment) (E-score (-0.5 to 0.5)); higher = stronger / more preferred TF binding; most listed sequences are background and not binding sites
# Settings: protein concentration: 200 nM; construct: GST-full length
# Outline: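 Detection of bound protein used fluorescent anti-GST, with scans normalised by masliner. The proteins were GST-tagged yeast transcription factors applied at about 100-200 nM to universal all-10-mer Agilent arrays made double-stranded by primer extension. Each ungapped eight-base word, pooled with its reverse complement, was scored with an E-score from the Universal PBM Analysis Suite.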
row,Sequence,PBM E-score
1,CTCAATGC,0.0539
2,ATGTTGAA,-0.0376
3,AACGATGC,-0.186
4,AAACGAGT,0.273
5,AGCTCCTC,-0.159
6,CCGTGCCC,-0.27
7,GACATTAA,-0.188
8,CATGAGGA,0.0401
9,CCCCACGA,-0.00086
10,TCCACGAA,-0.0132
11,TACAGCTA,-0.0889
12,CGACTTGC,0.111
13,ACGCAAAT,-0.254
14,ACAATGAT,0.201
15,GTGAGGAA,-0.00204
16,CGTGAAAC,-0.122
17,TCGGGCAA,-0.0273
18,GTTGCGAA,-0.0096
19,AGACAGCG,-0.0386
20,GTCGGTAA,-0.0576
21,CGCACGGC,-0.205
22,ATATAAAC,0.0726
23,GGGTTTAA,-0.142
24,AGTCGGCC,0.322

row,Sequence,PBM E-score
1,CTTACCAC,-0.0371
2,AATAACCA,0.144
3,AATACAAC,-0.0909
4,GAGGAATC,0.216
5,ATGATTAC,0.472
6,AAATAAAA,-0.018
7,AGCCAGTA,-0.134
8,ACATTCAG,-0.149
9,TAGATATA,-0.00404
10,AAAATCAT,0.354
11,ATGTCCTG,-0.129
12,ACCTAGCT,-0.036
13,AATGGAGT,0.151
14,GATCTTTA,0.0459
15,AGGTCTTC,-0.249
16,ATTGGATG,-0.062
17,GACCACCA,-0.0392
18,AATTTCTA,-5e-05
19,GTGCCCCA,-0.155
20,AAACCCGG,-0.164
21,TCAGACAA,0.0923
22,GGGCGATA,-0.242
23,CAGATAAA,0.086
24,CGGTCTGA,0.15

row,Sequence,PBM E-score
1,GTTGCCAA,-0.205
2,AATATCGG,-0.197
3,AATCGCAG,0.202
4,AGAAATGC,-0.278
5,ACTATTAA,0.239
6,CGAGGAAC,-0.223
7,ATTCTGGA,0.0394
8,AAGCAGCA,-0.264
9,ATTAGTCA,0.484
10,GGCCATTA,-0.247
11,CAGTTGGC,-0.0842
12,ACGCGATA,-0.27
13,CACATACG,0.0017
14,CGTGTACC,-0.146
15,AGGCTAAA,0.0337
16,CACCGTTA,0.0864
17,GGCGACAC,-0.0533
18,CGTCTCGA,0.0403
19,AAGGATCC,-0.15
20,AATGATTA,0.449
21,AAATATTG,0.0865
22,CCGGCAAG,-0.156
23,GTCTATGA,0.182
24,AGTTCATC,0.0393

row,Sequence,PBM E-score
1,GGCGGGTA,0.0367
2,AAGGATGT,-0.0818
3,CAAAACAA,-0.00639
4,GACATTCC,-0.225
5,CCGCCCAC,-0.0781
6,CACTCATG,0.222
7,ACGCACAG,-0.247
8,CTTGCACC,-0.15
9,AGGCGCTA,0.00497
10,CGAGGATC,0.038
11,AAGGGCTA,-0.072
12,CCTGGGAG,-0.303
13,GGGTGACC,-0.0382
14,AACGTTAC,-0.0895
15,AACTATAC,0.172
16,GCGATGCA,-0.244
17,GAAGATCA,0.02
18,ACCAAACC,-0.0669
19,ACCGACAT,-0.0222
20,GTCGCGAA,0.0905
21,CGAACAGA,-0.078
22,CCAGGCTC,-0.113
